# Measurements as given in ChEMBL document CHEMBL1201862, “PubChem BioAssay data set” (2004).
# Tested on: NCI-H322M
# Test: NCI anticancer screen, dose series, 48 h
row,Compound,GI50
1,Cc1nc2cc3nc4ccccc4c(O)c3cc2s1,inactive: > 100 µM
2,O=c1[nH]c2c(S)nc(O)nc2n1-c1ccccc1,inactive: > 100 µM
3,N#CC(NCCO)=C1C(=O)c2ccccc2C1=O,inactive: > 100 µM
4,Cn1c(=O)c2c(ncn2CN2CCN(Cn3cnc4c3c(=O)n(C)c(=O)n4C)CC2)n(C)c1=O,inactive: 68.5 µM
5,CCSc1nc(N2CCOCC2)c2cn[nH]c2n1,inactive: > 100 µM
6,COc1ccc2c(c1)[n+]([O-])c1cc(C#N)ccc1[n+]2[O-],active: 0.212 µM
7,S=C1SCN(Cc2ccco2)CN1c1ccc(Br)cc1,inactive: 18.5 µM
8,Cc1ccc(S(=O)(=O)N/N=C(\c2nc3ccc(Cl)cc3[nH]c2=O)C(O)c2ccco2)cc1 (stereo not drawn),inactive: > 100 µM
9,CCOc1ccc(-n2c(=O)n3c(Nc4ccc(Cl)cc4)nc4c(c(=O)n(C)c(=O)n4C)n3c2=O)cc1,inactive: 34.8 µM
10,O=C(Cc1nccc2c1[nH]c1ccccc12)OC1C#CCSCC#C/C=C\1 (stereo not drawn),inactive: > 100 µM
11,Cc1cccc2c1Oc1ncccc1C2NC(=O)CN(C)C (stereo not drawn),inactive: > 10 µM
12,O/N=C1/Nc2cc(Cl)ccc2C(=S)N2CSCC12 (stereo not drawn),inactive: > 100 µM
13,CC(C)=CC(C(O)c1ccccc1)S(=O)(=O)c1nccn1C (stereo not drawn),inactive: > 100 µM
14,COc1cccc(NC(=O)C(=O)C(C(C)=O)c2nc3ccc(Cl)cc3nc2O)c1 (stereo not drawn),inactive: > 100 µM
15,CSc1c(C)[n+]([O-])c2cc(Cl)c(Cl)cc2[n+]1[O-],inactive: 25.5 µM
16,CN(c1ccccc1)C1C(=O)N(c2ccccc2)C1/C=C/c1ccccc1 (stereo not drawn),inactive: > 100 µM
17,COC(=O)c1cc(C)ccc1/C=C1\Cc2cccc(C)c2C1=O,inactive: > 100 µM
18,NC(=O)c1ccc(NCC2=CC(=O)C=CC2=O)cc1,inactive: > 100 µM
19,Cc1nc2nnc(C)n2c2c1C(=O)Nc1ccccc1N2,inactive: > 100 µM
20,CC(CN(C)C)C(=O)c1ccccc1C(=O)O (stereo not drawn),inactive: 44.4 µM
21,CC(C)(Cl)C(Br)CC/C(=C/CCl)CBr.CC(C)(Cl)C(Br)CC/C(=C\CCl)CBr (stereo not drawn),inactive: 3.68 µM
22,CC(=O)O[C@H]1C#C/C=C\C#CC[C@@H]2C(=O)N(C(=O)OC(C)(C)C)[C@@H]12,inactive: > 78 µM
23,Nc1nc(Cl)c(N)c(NCC2(CO)CC2)n1,inactive: > 100 µM
24,CC1C2CC(CC23OCC(CCl)O3)C1(C)C (stereo not drawn),inactive: > 100 µM
25,Cc1nc2c(Cl)cc(Cl)cc2c2c1CCO2,inactive: > 100 µM

row,Compound,GI50
1,Oc1ccc(-c2nc(-c3cccnc3)c(-c3ccc(Cl)cc3)[nH]2)cc1O,inactive: 20.2 µM
2,CCOC(=O)CSc1nc(N)c2c(-c3ccccc3)c3c(nc2n1)CCCC3,inactive: > 100 µM
3,O=C(C(=O)n1ncc(Cl)c(Cl)c1=O)n1ncc(Cl)c(Cl)c1=O,inactive: > 100 µM
4,Nc1nc(N)c2ncn(Cc3ccccc3CCl)c2n1,inactive: > 100 µM
5,CC(C)C(N)(C(=O)O)c1ccccc1 (stereo not drawn),inactive: > 100 µM
6,CC(=O)OCC1OC(n2cc(F)c(=O)[nH]c2=O)C(NC(=O)N(CCCl)N=O)C(OC(C)=O)C1OC(C)=O (stereo not drawn),inactive: > 100 µM
7,Cc1cccc2c1CC1(Cc3ccccc3C1=O)C2=O (stereo not drawn),inactive: > 100 µM
8,O=C1N[C@@H]([C@H]2CC[C@H](Cl)CN2)C(=O)N[C@H]1[C@H]1CC[C@H](Cl)CN1,inactive: 5.92 µM
9,CC(NC(=O)C(N)CC(=O)O)NC(=O)N1CCCC1 (stereo not drawn),inactive: > 100 µM
10,COCOc1ccc(C(=O)C(C)c2ccc(OCOC)cc2OCOC)c(O)c1 (stereo not drawn),inactive: > 10 µM
11,O=c1[nH]nc(-c2ccccc2)c2[nH]c(-c3ccccc3)cc12,inactive: > 100 µM
12,O=C1NC2(CCCC2)C2CCCCC12O (stereo not drawn),inactive: > 100 µM
13,CC1=CC(=O)/C(=C/NC(=S)C(N)=S)C(=O)O1,inactive: > 100 µM
14,COCN1C(=O)[C@@H]2CCCN2C(=O)c2cc(N)ccc21,inactive: > 100 µM
15,O=c1c(NO)c([N+](=O)[O-])cnn1-c1ccccc1,inactive: 6.41 µM
16,N#Cc1nc(C#N)c(N)[nH]1,inactive: > 100 µM
17,O=C(O)C1OC(n2cc(F)c(=O)[nH]c2=O)CC1O (stereo not drawn),inactive: > 51.1 µM
18,CN(C)c1ncc(-c2c[nH]c3ccccc23)nc1-c1c[nH]c2ccccc12,inactive: 3.84 µM
19,COc1ccc(Br)c(C(=O)N2CCc3ccccc32)c1N,inactive: 95.5 µM
20,CO/C(N)=C(C#N)/N=C/c1ccsc1,inactive: > 100 µM
21,Cc1ccc(-c2nc(Cc3n[nH]c(-c4ccc(C)cc4)n3)n[nH]2)cc1,inactive: > 100 µM
22,C[N+](C)([O-])CCC=C1c2ccccc2CCc2ccccc21,inactive: 45.5 µM
23,O=C(O)CN(CCNC(=O)OCC1c2ccccc2-c2ccccc21)CCNC(=O)OCC1c2ccccc2-c2ccccc21,inactive: 30.4 µM
24,CCC1CNC(=O)CC1CC(=O)OC (stereo not drawn),inactive: > 100 µM
25,Cc1cc(C)nc(NS(=O)(=O)c2ccc(Nc3c4ccccc4nc4c(C(=O)N5CCN(CCO)CC5)cccc34)cc2)n1,inactive: > 100 µM

row,Compound,GI50
1,COc1ccc(N2C(=O)/C(=C\c3cccc(Oc4ccccc4)c3)S(=O)(=O)C2c2ccccc2)cc1 (stereo not drawn),inactive: 40 µM
2,CCS(=O)(=O)CCn1c(=O)c2c(ncn2C)n(C)c1=O,inactive: > 100 µM
3,COc1ccc2c(c1)CC1=C(O2)c2ccc(OC)cc2OC1,inactive: 63 µM
4,CCOC(=O)c1c(C)cc(=O)n2c1[nH]c1ccccc12,inactive: > 100 µM
5,O=[N+]([O-])c1cc(C(F)(F)F)cc2c1SC1=Nc3ccccc3CN12,inactive: > 100 µM
6,COc1cc(C2=C(C#N)C(N)OC3=C2COc2ccccc23)cc(OC)c1OC (stereo not drawn),inactive: 12.6 µM
7,COC(=O)NC(Cc1ccccc1)NC(=O)OC(C)(C)C (stereo not drawn),inactive: > 100 µM
8,Cc1cc(N(CCC#N)CCC#N)ccc1/C=C(\NC(=O)/C=C/c1ccccc1)C(=O)N=[N+]=[N-],inactive: > 100 µM
9,COc1cc(C(O)C(=O)c2cnc3cc([N+](=O)[O-])ccc3n2)ccc1O (stereo not drawn),inactive: > 100 µM
10,CC(=O)c1cccc(NC(=O)C(=O)Nn2c(N)nnc2N)c1,inactive: > 100 µM
11,C=CCOc1ccc(N)c([N+](=O)[O-])c1,inactive: > 100 µM
12,C=CC(C)(C)/C(=C\CO[Si](C(C)C)(C(C)C)C(C)C)C(=O)N(C)c1ccccc1I,inactive: 16.4 µM
13,OCCCSc1ccccc1SCCCO,inactive: > 100 µM
14,CC1(C)COC(c2cccc3c2C(=O)c2cccc(Cl)c2-3)=N1,inactive: 55.5 µM
15,O=S(=O)(O)c1ccc(/N=N/c2ccc(/N=N/c3c(O)ccc4ccccc34)c(S(=O)(=O)O)c2)cc1,inactive: > 100 µM
16,N#Cc1nc(Nc2ccc([N+](=O)[O-])cc2)sc1N,inactive: 31.5 µM
17,O=C1c2ccccc2-c2ccccc2C(=O)C1(Br)Br,inactive: 17.9 µM
18,OCCN1CN(c2nc(N3CN(CCO)C3)nc(N3CN(CCO)C3)n2)C1,inactive: 38.7 µM
19,O=C(C=P(c1ccccc1)(c1ccccc1)c1ccccc1)c1ccc(-c2cccc([N+](=O)[O-])c2)s1,inactive: 52.4 µM
20,Nc1cc(C2CCCc3c2[nH]c2ccccc32)ccc1O (stereo not drawn),inactive: > 100 µM
21,S=c1c2cn[nH]c2nc2scc(-c3ccc(Cl)cc3)n12,inactive: > 10 µM
22,CC1(C)C2CCC(=O)C1C(OCc1ccccc1)C2 (stereo not drawn),inactive: > 100 µM
23,CN1C(=O)CC2CCC(=O)N2c2cccnc21 (stereo not drawn),inactive: > 100 µM
24,Cc1ccccc1NC(=O)/C(=N\NC(N)=S)C(C#N)c1ccccc1 (stereo not drawn),inactive: > 100 µM
25,CCOP(=O)(OCC)/C(C#N)=C/c1c(C)[nH]c2ccccc12,inactive: > 100 µM

row,Compound,GI50
1,COC(=O)C1=C(c2ccc(Cl)cc2)C(O)NC(NN)=N1 (stereo not drawn),inactive: > 100 µM
2,CCOC(=O)c1cn2c([nH]c3ccccc32)c(C#N)c1=O,inactive: > 100 µM
3,O=C1C(Br)=C[C@H]2C3C=CC(Br)(C3=O)[C@@H]12 (stereo partly drawn),inactive: 6.52 µM
4,c1ccc(C/C(=N\Nc2nc3ccccc3[nH]2)c2ccccn2)cc1,active: 0.041 µM
5,CC(C)c1cccc(C(C)C)c1NC(=O)/C(CC(=O)CC(c1ccccc1)c1c(O)c2ccccc2oc1=O)=N/O (stereo not drawn),inactive: > 100 µM
6,CC[C@@]1(CCC(=O)NCCc2c[nH]c3ccccc23)CCC(=O)N2CCc3c([nH]c4ccccc34)[C@H]21,inactive: 33.7 µM
7,CCOC(=O)c1nc2c3c(ncn2n1)Oc1c(c(-c2ccccc2)nn1-c1ccccc1)C3c1ccc(Cl)cc1 (stereo not drawn),inactive: > 100 µM
8,O=C(Oc1ccc2c(-c3ccccc3)c(C(=O)Nc3ccc(Cl)cc3)c(=O)oc2c1)c1ccccc1,inactive: > 100 µM
9,COc1ccc(N2C(=O)C(Cl)C2c2cc3cc(Br)ccc3nc2Cl)cc1 (stereo not drawn),inactive: 9.73 µM
10,COc1ccc(/C=C/C(=O)N[C@@H]2C(=O)N3[C@@H]2SC(C)(C)[C@@H]3C(=O)O)cc1,inactive: > 100 µM
11,Cc1cc(/N=C/c2c(CO)cnc(C)c2O)c(/N=C/c2c(CO)cnc(C)c2O)cc1C,inactive: 99.1 µM
12,[N-]=[N+]=NC1C2CC3C4CC5CC3[C@H](C2)C(C5)C41 (stereo partly drawn),inactive: > 100 µM
13,CC1(C)CCC[C@@]2(C)C1CC[C@@]1(CO)O[C@H](C3=CC(=O)OC3O)C[C@H]12 (stereo partly drawn),inactive: 16.9 µM
14,COC12c3ccccc3-c3ccccc3C1[C@H]1C(=O)OC(=O)[C@H]12 (stereo partly drawn),inactive: > 10 µM
15,Nc1c2c(nc3ccccc13)-c1ccccc1NCCC2,inactive: 33.3 µM
16,CCN(CC)CCNc1ccc2nnn3c4ccc(O)cc4c(=O)c1c23,inactive: 3.23 µM
17,COC(=N)c1csc(C2OC(CO)C(O)C2O)n1 (stereo not drawn),inactive: > 100 µM
18,O=C1CCC2(c3ccccc3)Nc3ccccc3N12 (stereo not drawn),inactive: > 100 µM
19,O=c1nc2n3c4c(cccc4nc-2c(=O)[nH]1)CCC3,inactive: > 100 µM
20,CC(C)C1=Cc2ccc3c(c2C(=O)C1=O)CCCC3,inactive: 10 µM
21,CCOC(=O)c1c(CN2CCCC2)n(-c2ccccc2)c2cc(Br)c(O)cc12,inactive: 24.4 µM
22,CCN(CC)CCNc1ccc2ncn3c4c(OC)cccc4c(=O)c1c23,inactive: 4.47 µM
23,CNc1ccc2c(c1)Cc1ccccc1-2,inactive: 48.1 µM

#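 Briefly, cells in 96-well plates were exposed to five compound concentrations for 48 h, and endpoints were estimated by linear interpolation. At the GI50, growth is halved.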 Active and inactive are the calls of the source. No stated cut-off is given here; in the data, active = GI50 up to about 1.1 µM and inactive = higher.
